The text below walks through data of ChEMBL document CHEMBL4888484, “Replenishing the malaria drug discovery pipeline: Screening and hit evaluation of the MMV Hit Generation Library 1 (HGL1) against asexual blood stage Plasmodium falciparum ,using a nano luciferase reporter read-out” (2022).

In all, about 150,000 compounds went through this assay and about 540 (0.36%) showed an effect of 50% or more. This is one part of the list.

The test system of the test is Plasmodium falciparum. Put plainly: Primary screen in NF54 nanoGlo assay, in single point, at 2uM, 72h; a lower Z score goes with more inhibition. Particulars: timepoint 72 hour. The test is classed as functional, Erythrocyte.
As a reminder, the % Inhibition is the drop in the measured response relative to a control, in per cent. In the case of `CN1CCC(N(Cc2ccncc2)Cc2cc(F)cc(Cl)c2)CC1`, the “% Inhibition” value was found to be 2% and the Z score is listed as -0.39.
For `O=C1NCC(C2CCOC2)C(=O)N1Cc1cccc(Cl)c1F` (stereo not drawn), in that order: -3% and 0.55.
Consider `Cc1noc(C)c1S(=O)(=O)NCC(=O)N1CCCCCCNC(=O)C[C@H]1c1ccccc1`, for which the “% Inhibition” value is listed as -12% and the Z score came to 1.73.
With `Cc1n[nH]nc1C(=O)N[C@@H](C)c1cccnc1`, the “% Inhibition” value is reported as -9% and the Z score turned out to be 1.34.
Regarding `Cc1ccc(S(=O)(=O)Cc2cc(=O)n(C)c(=O)n2C)c(C)c1`, the “% Inhibition” value is reported as -11% and the Z score came out at 2.1.
For `Cc1cccc(Cl)c1OCCCNCc1ccco1`, in that order: -1% and 0.09.
Turning to `CNC(=O)[C@@H](NC(=O)Cc1cccc(Cl)c1Cl)C(C)C`, the “% Inhibition” value is given as -14% and the Z score was determined as 1.24.
Regarding `O=S(=O)(Nc1nnc(C2CC2)s1)c1cncc(Cl)c1`, the “% Inhibition” value is 10% and the Z score is reported as -1.15.
`C[C@H]1CCCCN1S(=O)(=O)NC1CCCCCC1`: the “% Inhibition” value is on record as -14% and the Z score was found to be 1.78.
`CCCCOc1ccccc1NC(=O)NCC1CS(=O)(=O)C1`: the “% Inhibition” value is -4% and the Z score turned out to be 0.38.
Turning to `Cc1oc(-c2ccccc2NS(C)(=O)=O)nc1CN(C)C[C@@H](C)Cc1ccc2c(c1)OCO2`, the “% Inhibition” value is recorded as -3% and the Z score was found to be 0.48.
On the same counts, the results for `CC1OCCN(C(=O)c2ccc3c(c2)CCO3)C1C` (stereo not drawn) are -6% and 0.78.
For `Clc1cnc(NCCNCc2ccncc2)c(Cl)c1`, the “% Inhibition” value is -9% and the Z score was 1.13.
`O=C(CNC(=O)C1CCCCC1)NCCCO`: the “% Inhibition” value was -14% and the Z score is given as 1.93.
Regarding `O=C(NCCc1nc2ccccc2[nH]1)[C@@H]1CC=CCC1`, the “% Inhibition” value is reported as -14% and the Z score is on record as 1.22.
Regarding `N#Cc1cccc(NC(=O)N2C[C@@H]3CC[C@H]2CN(Cc2ccncc2)C3)c1`, the “% Inhibition” value is -15% and the Z score worked out at 3.09.
`CN1CCCn2nc([C@H]3CCCN(C(=O)Cn4ccnc4)C3)cc2C1=O`: the “% Inhibition” value is on record as -11% and the Z score was 2.1.
For `Cc1ccc2[nH]cc(-c3ncccc3NC(=O)C(C)C)c2c1`, in that order: 2% and -0.27.
For `Cc1ccc(C(=O)C2CCN(C(=O)Cn3c(C)cc4ccccc43)CC2)c(C)c1`, in that order: -2% and 0.2.
Take `N=C(Cc1ccc(Cl)cc1Cl)NOC(=O)Cc1ccccc1`: the “% Inhibition” value is 6% and the Z score is -0.79.
As to `COc1ccc(-c2cc3n(n2)C[C@@](C)(C(=O)NCc2ccccc2OC)N(c2cccc(OC)c2)C3=O)cc1`, the “% Inhibition” value came out at 51% and the Z score was -8.04.
`N#Cc1nccnc1O[C@H]1CC[C@H](NC(=O)c2ccc(F)cc2)CC1`: the “% Inhibition” value is reported as -9% and the Z score is on record as 1.02.
For `Cc1ccc(CNC(=O)[C@]2(C)Cn3nc(-c4cccs4)cc3C(=O)N2c2cc(Cl)ccc2C)cc1`, in that order: -9% and 1.4.
On the same counts, the results for `COc1ccc(F)c(F)c1CN1CCC(N2CCc3ccccc3C2)CC1` are -6% and 0.59.
On to `Cc1ccc(-n2nc(N3CCCN(C(=O)CC4CCCC4)CC3)ccc2=O)cc1C`, for which the “% Inhibition” value came out at 9% and the Z score is on record as -0.99.
For `CCC(=O)N1CC[C@H](c2nc(Cc3cc(C)cc(C)c3)no2)C1`, in that order: -5% and 0.81.
On to `Cc1nc(C2(C)CCN(S(=O)(=O)c3ccc(C(C)(C)C)cc3)CC2)no1`, for which the “% Inhibition” value is reported as -7% and the Z score was determined as 0.88.
For `Cn1c(=O)n([C@H]2CCN(C(=O)c3cccs3)C2)c2ncccc21`, the “% Inhibition” value is -10% and the Z score stood at 1.3.
On to `COCCN(CC1CN(Cc2ccc(OC)cc2)CC1c1cccc(OC)c1)C(=O)C(C)C` (stereo not drawn), for which the “% Inhibition” value worked out at 2% and the Z score was -0.2.
Consider `O=C(CCc1ccccc1)N1CCC2(CC1)C[C@@H](CCOCC1CC1)CCO2`, for which the “% Inhibition” value is given as -7% and the Z score is 1.27.
In the case of `COc1ccc(NCc2ccc(F)cn2)cc1N1CCOC1=O`, the “% Inhibition” value is reported as -11% and the Z score was found to be 1.5.
As for `Cc1cnc(CNC(=O)[C@H]2CCc3ccccc3C2)s1`, the “% Inhibition” value is on record as -8% and the Z score is 1.04.
On the same counts, the results for `CCCCOc1cccc([C@@H]2c3c(-c4ccccc4O)n[nH]c3C(=O)N2Cc2ccc3c(c2)OCO3)c1` are -5% and 0.67.
For the compound `CCOC(=O)C(C#N)C(c1cccnc1)c1c(C)n[nH]c1O` (stereo not drawn), the “% Inhibition” value stood at 6% and the Z score is -0.8.
Turning to `O=C(NCCc1nnc2n1CCCC2)C1=CCCCCC1`, the “% Inhibition” value is on record as -11% and the Z score stood at 1.46.
In the case of `CN1CCC(n2nc(-c3ccco3)nc2CN(C)Cc2ccccn2)CC1`, the “% Inhibition” value is listed as -19% and the Z score worked out at 2.47.
Consider `COC1(CC(=O)Nc2cccc(CN)c2)CCC1`, for which the “% Inhibition” value was -8% and the Z score was 1.46.
Consider `Cc1ccc2c(ccn2CC(=O)Nc2cnn(C)c2)c1`, for which the “% Inhibition” value was 0% and the Z score was 0.06.
For `Cc1ncc(C(=O)Nc2ncnn2C(C)(C)C)c(C)n1`, in that order: -7% and 1.16.
Take `CCN1C[C@@H](c2ccccc2)CC2(CCN(S(=O)(=O)N3CCCC3)CC2)C1`: the “% Inhibition” value is -16% and the Z score is reported as 1.51.
On to `COc1ncc(CN[C@H]2CCC23CCOCC3)cc1Cl`, for which the “% Inhibition” value is reported as -2% and the Z score is given as 0.31.
As for `CC(C(=O)N1CCS(=O)(=O)C(C)C1)c1cn(C)c2ccccc12` (stereo not drawn), the “% Inhibition” value was -3% and the Z score was 0.45.
On the same counts, the results for `COc1cc(=O)[nH]cc1C(=O)N(Cc1ccccc1)C1CCCCC1` are -7% and 0.91.
In the case of `C[C@@](CO)(Nc1ncc(Br)cn1)C1CC1`, the “% Inhibition” value is listed as -15% and the Z score turned out to be 2.21.
As for `CCC1Oc2ccc(NC(=O)C(CC)c3ccccc3)cc2CN(Cc2ccc(F)cc2)C1=O` (stereo not drawn), the “% Inhibition” value is listed as -16% and the Z score is listed as 1.52.
Take `O=C(Nc1cccc(Cl)c1Br)N[C@@H]1C[C@H]2CC[C@@H]1O2`: the “% Inhibition” value is given as -9% and the Z score is listed as 1.25.
Take `Cn1c(Cn2cccn2)nnc1C1CCN(c2cc(N)nc(N)n2)CC1`: the “% Inhibition” value is on record as -9% and the Z score was 0.86.
On to `O=C1CN(CCNC(=O)c2ccoc2C(F)(F)F)CCN1`, for which the “% Inhibition” value is -1% and the Z score worked out at 0.13.
As to `O=C(c1nccnc1-c1nc2ccccc2s1)N1CCCC1`, the “% Inhibition” value was -2% and the Z score turned out to be 0.4.
For the compound `Cc1noc(C2CC2)c1N[C@@H](C)CCc1ccccc1F`, the “% Inhibition” value was 1% and the Z score is on record as -0.12.
`Cc1nn(CCNS(=O)(=O)c2cccs2)c(C)c1-c1ccsc1`: the “% Inhibition” value turned out to be 24% and the Z score is -3.06.
Consider `Cc1ccc(CNC(=O)C2CCN(c3c(-n4c(C)ccc4C)c(C)nn3-c3ccccc3)CC2)o1`, for which the “% Inhibition” value is on record as -5% and the Z score was found to be 0.74.
For `CCCc1c(NC(=O)NC[C@H]2CCC3(CCCC3)O2)cnn1-c1cc(C)ccn1`, the “% Inhibition” value is on record as -12% and the Z score was 1.31.
With `COc1nc(CNS(=O)(=O)c2c(C)n[nH]c2C)nc(N(C)C)n1`, the “% Inhibition” value was -13% and the Z score was 1.7.
For `O=C(c1c[nH]c(-c2ccccc2)n1)N1CCC(n2cc(CO)nn2)CC1`, the “% Inhibition” value is -8% and the Z score stood at 1.37.
For `O=C(O)[C@@H]1CCN(Cc2nnsc2Cl)c2ccc(Br)cc21`, the “% Inhibition” value is given as 4% and the Z score is -0.66.
Regarding `Cc1nnc([C@H](C)Nc2ccc(F)c(NC(=O)c3ccsc3)c2)o1`, the “% Inhibition” value was -4% and the Z score was found to be 0.6.
Consider `COc1cc2c(cc1OC)CN(C(=O)OC(C)(C)C)[C@H](C(=O)NC[C@H]1CC[C@H](C(=O)O)CC1)C2`, for which the “% Inhibition” value was -17% and the Z score was determined as 1.78.
Consider `CCNS(=O)(=O)c1cc(C)ccc1C`, for which the “% Inhibition” value turned out to be 36% and the Z score is recorded as -0.73.
For `C[C@@H]1CN(C(=O)c2ccc(F)cc2F)CC[C@@]1(O)C1CCOCC1`, the “% Inhibition” value was -6% and the Z score turned out to be 0.9.
As for `CCc1cccc(NC(=O)CNC(=O)N2CC(=O)Nc3ccccc32)c1`, the “% Inhibition” value is reported as -4% and the Z score is listed as 0.53.
On to `Cn1ncnc1NC(=O)CCCc1ccccc1`, for which the “% Inhibition” value was -5% and the Z score is reported as 0.75.
For `Cc1ccccc1OCC(=O)NCc1cc(-c2ccccn2)nn1C`, in that order: -20% and 2.9.
On to `O=C(CC1(CC(=O)N2CCCO2)CCCC1)N1CCCO1`, for which the “% Inhibition” value is listed as -13% and the Z score was determined as 1.62.
As to `CCc1cnc(C)nc1-c1cccc(-c2ccn(C[C@@H](O)CC)n2)c1`, the “% Inhibition” value is -6% and the Z score is given as 0.9.
For `CCCn1c(C)cnc1C1CN(C(=O)NC2CCCCC2)C1`, the “% Inhibition” value is -5% and the Z score was 0.63.
For the compound `Cc1csc([C@H](C)NC(=O)c2cccn2C(C)C)n1`, the “% Inhibition” value is recorded as -11% and the Z score is 1.46.
For the compound `Cc1ccc(OCC2CCN(S(=O)(=O)c3c(C)n[nH]c3C)CC2)nn1`, the “% Inhibition” value is on record as -15% and the Z score came to 1.7.
As to `CC(C)C(C)(C)CNC(=O)N[C@@H](C)Cn1ncc2ccccc2c1=O`, the “% Inhibition” value was -13% and the Z score was 1.89.
For the compound `Cc1ccc(N2CCC([C@]3(c4cccnc4)NC(=O)NC3=O)CC2)nn1`, the “% Inhibition” value worked out at 3% and the Z score was -0.72.
As for `CC(C)C(NC(=O)c1ccc(-c2ccc3c(c2)OCCO3)s1)C(C)C`, the “% Inhibition” value was -12% and the Z score amounted to 1.13.
On to `Cc1cnc(N)nc1NCC1(Cn2ccnc2C)CC1`, for which the “% Inhibition” value was 0% and the Z score came to 0.04.
As to `O=C(C1CCN(S(=O)(=O)c2ccc(Br)cc2)CC1)N1CCN(C(c2ccccc2)c2ccccc2)CC1`, the “% Inhibition” value was found to be 0% and the Z score amounted to 0.
Consider `COCC[C@H]1COCCN1C(=O)c1cccc(Nc2nccc(C)n2)c1`, for which the “% Inhibition” value is listed as -12% and the Z score worked out at 1.6.
Regarding `C[C@@H](C(=O)NCc1csc(N2CCCC2)n1)N1CCCC1=O`, the “% Inhibition” value is -9% and the Z score amounted to 1.79.
As for `Cn1cc(C(NC(=O)c2nc3cccnc3[nH]2)[C@H]2C[C@H](O)C2)cn1` (stereo partly drawn), the “% Inhibition” value was -8% and the Z score amounted to 1.56.
As to `CC(C)c1nc(CN2CCC[C@@H]2C(=O)O)cs1`, the “% Inhibition” value is recorded as -4% and the Z score came out at 0.48.
As to `Cc1cnc(C)c(N2C[C@@H]3OC(=O)N(CCc4ccccn4)[C@@H]3C2)n1`, the “% Inhibition” value was -17% and the Z score is reported as 1.49.
For `Cc1noc(C)c1N(C)CC(=O)N1CCOC2CCCCC21` (stereo not drawn), the “% Inhibition” value is listed as -7% and the Z score is recorded as 0.66.
As to `O=C(C1=CCCC1)N1C[C@@H]2CCS(=O)(=O)[C@@H]2C1`, the “% Inhibition” value amounted to 11% and the Z score is reported as -1.39.
For the compound `CC[C@H]1CCCCCN1C(=O)NCCc1nnc(C)s1`, the “% Inhibition” value is reported as -9% and the Z score is 1.2.
For `O=C(N[C@@H]1CN(C(=O)c2ccoc2)CC[C@@H]1CO)c1ccccc1`, in that order: -15% and 2.06.
In the case of `COc1cn(C)c(C(=O)N2CCN(c3ccc(Cl)cc3)CC2)cc1=O`, the “% Inhibition” value is -1% and the Z score is on record as 0.1.
On the same counts, the results for `C[C@@H](CN1CCCCC1)NCc1ccc2[nH]cnc2c1` are 5% and -0.69.
